Results reported in the supplement of paper PMC12217912.
The other results are listed elsewhere or left out. Sequences were assembled here from the parent chain. Values near 0.05 are background.

B1: TEV protease; numbered along this chain (parent)
chain: MGESLFKGPRDYNPISSSICHLTNESDGHTTSLYGIGFGPFIITNKHLFRRNNGTLVVQSLHGVFKVKDTTTLQQHLVDGRDMIIIRMPKDFPPFPQKLKFREPQREERICLVTTNFQTKSMSSMVSDTSCTFPSGDGIFWKHWIQTKDGQCGSPLVSTRDGFIVGIHSASNFTNTNNYFTSVPKNFMELLTNQEAQQWVSGWRLNADSVLWGGHKVFMVKPEEPFQPVKEATQL

Variants of: B1
Test: raw area under fraction-flipped curve 0-4 h after induction (AUC4h, not background-subtracted), DNA-recorder readout of cleavage of the substrate (dimensionless); higher = more cleavage of the substrate by the protease variant
Settings: temperature: 34 °C; time window: 0-4 h after rhamnose induction
Protocol: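 In vivo DNA recorder in E. coli TOP10(DE3) ΔrhaA at 34 °C. Each TEVp single-site mutant (parent TEVp 0) is paired with a single-site variant of the 7-mer TEVs (canonical ENLYFQ|S). The substrate sits between flexible linkers in a Bxb1-sfGFP-TEVs-SsrA fusion, so cleavage stabilises Bxb1 and speeds flipping of a recombination array, read by NGS. The value is the raw area under the fraction-flipped curve over 0-4 h after rhamnose induction (AUC4h), with ≥20 reads per time point. It is not background-subtracted; inactive controls average about 0.047.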
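Also: Bxb1 expression induced with 0.2% (w/v) L-rhamnose at OD600 near 0.5, cultures sampled hourly, flipped fraction per protease–substrate barcode pair counted by paired-end Illumina sequencing.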

Row | Variant | area with substrate ENLYAQS | area with substrate ENLYCQS | area with substrate ENLYDQS | area with substrate ENLYEQS | area with substrate ENLYHQS | area with substrate ENLYIQS | area with substrate ENLYKQS | area with substrate ENLYLQS | area with substrate ENLYMQS | area with substrate ENLYNQS | area with substrate ENLYPQS | area with substrate ENLYQQS | area with substrate ENLYRQS | area with substrate ENLYWQS | area with substrate ENLYYQS | area with substrate ENLYVQS | area with substrate ENLYGQS | area with substrate ENLYTQS | area with substrate ENLYSQS
1 | E3L | 0.0645 | 0.0747 | 0.0624 | 0.0674 | 0.108 | 0.0865 | 0.0101 | 0.0646 | 0.0573 | 0.0614 | 0.0607 | 0.0529 | 0.0601 | 0.0664 | 0.0688 |  |  |  | 
2 | E3T | 0.0802 |  | 0.0614 |  |  | 0.129 |  |  |  |  |  |  |  |  |  | 0.17 |  |  | 
3 | S4Q | 0.101 | 0.0855 | 0.0626 | 0.0692 | 0.0685 |  | 0.0667 |  | 0.105 | 0.0706 | 0.0524 | 0.0405 | 0.0711 |  | 0.0687 | 0.133 | 0.0721 | 0.101 | 
4 | L5V | 0.086 |  |  | 0.0666 | 0.067 |  | 0.044 | 0.0897 | 0.103 | 0.0633 |  | 0.0746 | 0.0626 | 0.0889 | 0.0711 | 0.119 | 0.044 |  | 
5 | F6W | 0.0661 |  | 0.0676 | 0.056 | 0.0635 |  | 0.0601 |  | 0.0786 | 0.058 | 0.0661 | 0.0539 | 0.0627 | 0.0776 |  | 0.101 | 0.0527 | 0.0808 | 
6 | K7L | 0.0875 |  |  | 0.0644 |  |  | 0.0709 | 0.101 |  | 0.0628 | 0.0572 |  | 0.0609 | 0.0663 |  |  | 0.0635 | 0.0632 | 
7 | R10F | 0.0774 | 0.0845 | 0.0661 | 0.0684 | 0.0662 | 0.0883 | 0.0652 | 0.0644 | 0.0729 | 0.0676 | 0.0658 | 0.0734 | 0.059 | 0.0721 | 0.0675 |  | 0.0595 |  | 0.163
8 | R10Y | 0.0424 | 0.104 | 0.0621 | 0.0642 | 0.0544 | 0.101 | 0.0573 |  | 0.0684 | 0.0494 | 0.0699 | 0.0562 | 0.0627 |  | 0.0697 | 0.0594 | 0.0654 |  | 
9 | D11C | 0.0743 | 0.0817 |  | 0.0623 | 0.056 | 0.124 | 0.0554 |  | 0.084 | 0.0696 | 0.0732 | 0.059 | 0.0677 | 0.0805 | 0.0536 | 0.132 | 0.0797 | 0.065 | 
10 | P14L | 0.0893 |  | 0.0593 | 0.12 | 0.0728 | 0.126 | 0.0355 | 0.0994 | 0.0839 | 0.0799 | 0.0788 | 0.0735 | 0.0602 | 0.0855 |  | 0.169 | 0.067 |  | 0.0873
11 | I15T | 0.074 | 0.112 | 0.0516 | 0.056 | 0.0561 | 0.115 | 0.0636 |  | 0.0927 | 0.0515 | 0.0596 | 0.0543 |  | 0.0627 | 0.0556 | 0.118 | 0.069 | 0.0649 | 0.0744
12 | S17T | 0.0815 |  | 0.0576 | 0.0802 | 0.0677 | 0.132 | 0.0578 | 0.0804 | 0.0874 | 0.0672 |  | 0.0684 | 0.0599 |  | 0.0713 |  | 0.0507 | 0.0827 | 0.0659
13 | I19A | 0.0639 | 0.0804 |  | 0.0523 | 0.0637 |  | 0.067 |  |  | 0.0769 | 0.0628 | 0.0634 | 0.0684 | 0.0864 |  | 0.0587 |  | 0.0929 | 
14 | L22Q | 0.0461 |  | 0.049 | 0.0515 |  | 0.0434 | 0.0645 | 0.0242 | 0.0384 | 0.0427 | 0.0485 | 0.0537 | 0.0375 | 0.0457 |  | 0.0586 | 0.0421 |  | 0.0492
15 | E25H | 0.0561 | 0.111 |  | 0.0633 | 0.065 | 0.125 |  |  | 0.0625 | 0.0627 | 0.0527 |  | 0.068 | 0.0645 |  |  |  |  | 0.0639
16 | E25M | 0.0734 |  | 0.0705 | 0.0576 | 0.0734 | 0.173 | 0.07 | 0.0818 | 0.089 | 0.088 | 0.0669 | 0.0538 | 0.0345 | 0.0652 | 0.0663 | 0.124 | 0.0656 | 0.103 | 0.0873
17 | S26Y | 0.0548 | 0.0643 | 0.0645 | 0.112 |  | 0.0626 | 0.0325 | 0.061 |  | 0.065 | 0.0666 | 0.057 | 0.0639 | 0.0642 |  |  | 0.0546 | 0.0545 | 0.071
18 | D27M | 0.0713 | 0.0739 | 0.0581 | 0.0612 | 0.0658 | 0.111 | 0.0588 |  | 0.0803 |  | 0.0737 |  | 0.0656 | 0.0515 |  | 0.111 | 0.0453 | 0.0624 | 0.0701
19 | T30I | 0.0401 |  | 0.0518 | 0.0585 | 0.0617 |  | 0.0676 |  | 0.0805 |  | 0.116 | 0.0548 | 0.0553 | 0.0794 | 0.0654 |  | 0.064 |  | 0.0933
20 | T30P | 0.0732 |  | 0.0645 |  |  | 0.102 | 0.0689 |  | 0.0797 | 0.0505 |  | 0.0754 |  |  |  | 0.0803 | 0.07 |  | 
21 | Y34S | 0.0927 | 0.0774 |  |  | 0.0636 | 0.114 | 0.021 | 0.0667 |  |  |  |  | 0.0522 |  | 0.0512 | 0.0746 | 0.0678 | 0.0644 | 
22 | I36K | 0.0388 | 0.0437 |  | 0.0349 | 0.0366 |  |  |  |  |  |  |  |  | 0.0352 |  |  |  |  | 0.0489
23 | G37Y | 0.0494 |  | 0.0586 | 0.0518 | 0.0495 | 0.0703 | 0.0415 | 0.0687 | 0.0436 | 0.0597 | 0.0664 |  | 0.0593 | 0.0503 |  |  | 0.0564 | 0.06 | 0.056
24 | F38Q | 0.0618 |  | 0.0571 | 0.0653 | 0.0632 | 0.124 | 0.0542 |  | 0.0758 | 0.0618 | 0.0903 | 0.0493 |  | 0.0809 | 0.0596 | 0.117 | 0.0657 | 0.0504 | 0.0458
25 | P40V | 0.0806 |  |  | 0.0661 | 0.0598 | 0.116 | 0.0478 |  | 0.0849 | 0.0533 | 0.0748 | 0.0736 | 0.0629 | 0.0792 | 0.0636 | 0.108 | 0.061 |  | 0.0745
